From the supplement of paper PMC3334620
The full ranking holds about 33,000 sequences; the median of “E-score (-0.5 to 0.5)” is about -0.041, and the highest 2% start at about 0.37. Some of the results follow.

Biological target: T1, Ecm22 (UniProt Q05958)
T1 sequence: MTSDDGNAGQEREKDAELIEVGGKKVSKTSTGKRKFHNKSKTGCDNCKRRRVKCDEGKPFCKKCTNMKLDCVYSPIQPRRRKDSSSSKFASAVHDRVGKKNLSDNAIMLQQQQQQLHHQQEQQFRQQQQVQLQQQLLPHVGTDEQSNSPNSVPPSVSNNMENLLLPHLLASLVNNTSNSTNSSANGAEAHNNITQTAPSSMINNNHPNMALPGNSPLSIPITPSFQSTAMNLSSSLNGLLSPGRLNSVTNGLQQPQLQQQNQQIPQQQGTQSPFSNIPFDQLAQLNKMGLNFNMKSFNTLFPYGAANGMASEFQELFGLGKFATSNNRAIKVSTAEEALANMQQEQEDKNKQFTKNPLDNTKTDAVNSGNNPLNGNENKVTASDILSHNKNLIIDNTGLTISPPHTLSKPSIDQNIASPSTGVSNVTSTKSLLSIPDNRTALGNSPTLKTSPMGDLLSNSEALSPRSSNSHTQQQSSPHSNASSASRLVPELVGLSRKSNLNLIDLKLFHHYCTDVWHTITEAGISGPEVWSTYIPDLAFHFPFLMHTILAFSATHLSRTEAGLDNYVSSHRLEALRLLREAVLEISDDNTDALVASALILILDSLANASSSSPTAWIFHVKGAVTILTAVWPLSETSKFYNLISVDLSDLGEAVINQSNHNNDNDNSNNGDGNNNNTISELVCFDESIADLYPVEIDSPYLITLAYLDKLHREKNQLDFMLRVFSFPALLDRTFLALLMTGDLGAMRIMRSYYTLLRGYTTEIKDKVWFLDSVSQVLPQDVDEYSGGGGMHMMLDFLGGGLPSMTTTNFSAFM
Experiment: PBM E-score (8-mer binding enrichment) (E-score (-0.5 to 0.5)); higher = stronger / more preferred TF binding; most listed sequences are background and not binding sites
Details: protein concentration: 200 nM; construct: GST-full length
Summary of the method: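 GST-tagged yeast TFs (full-length or DNA-binding domain) were made by PURExpress in vitro transcription/translation and applied at about 100-200 nM to universal all-10-mer Agilent arrays. The arrays were made double-stranded by primer extension, on fresh or once-stripped slides. Bound protein was detected with fluorescent anti-GST, and scans were normalised with masliner. Each ungapped eight-base word, pooled with its reverse complement, received an E-score (modified Wilcoxon-Mann-Whitney statistic) from the Universal PBM Analysis Suite.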

Sequence | PBM E-score
ATATGGCG | 0.0329
CGCGGACC | -0.00804
CCTACTAG | -0.0757
CAGGATCA | -0.201
CAGGGTAA | -0.255
CGGGATCA | 0.0955
AAGTACGT | 0.171
ATCGCTTG | 0.122
AGCCCAAT | -0.108
ACTTTTCA | -0.171
CCACTGGG | -0.325
CCTTTGTA | -0.18
AGGCAATC | -0.162
ACGAATGC | 0.305
GTCGGCAC | -0.0966
ACGATCAT | 0.282
CAGACAGA | -0.126
CATCCCAA | -0.227
GCCGAGAC | -0.0241
ACTTTCAG | -0.2
GCACTCCA | -0.183
CACTCCGC | -0.0252
CATATCTC | -0.123
CTCGATGC | -0.122
GGCTACTA | -0.0795

Sequence | PBM E-score
CCAAAGTC | -0.208
GGCTGGAA | -0.239
ATGTGTCC | -0.14
CGTTTTGC | 0.106
AACTAAGT | -0.0136
CCTTCACG | -0.0503
CCCTGCAG | -0.136
CGTGAGAG | -0.292
GGCCAAGA | -0.209
CAAAAACC | -0.057
GCATTACA | -0.137
CTCGCACA | 0.274
GCTGGGGA | -0.211
CTGACAGC | -0.0914
GGGTTAGA | -0.266
GATAGGAC | -0.261
ACATCACT | 0.0638
CATCAACG | -0.0401
CAGCAATC | -0.119
ACGACATG | 0.339
TGGTACCA | -0.0735
CTATTCAC | -0.0921
AAAACCCG | 0.091
AAGAGTGT | -0.187
CAAGAAGA | -0.106

Sequence | PBM E-score
CACGAACC | 0.0995
AACATGAT | -0.0615
TAATCCTA | 0.00777
AAGCGATC | 0.161
AAACACAC | 0.114
ACCTACAT | -0.0722
ACGGTACT | 0.0921
GGATAGAC | -0.0159
GGGGCTAC | -0.0133
CGCAAGAG | -0.11
CCTGTTAG | 0.0832
ACTCGTAA | 0.437
ATCTGGCG | -0.196
GAGGCGGA | -0.00549
CCAACAGC | -0.198
AAGTACCC | -0.0864
CATATATC | 0.0903
CGCTGGTC | -0.19
ATCTCTGG | -0.189
AGGTGTAA | -0.0655
CCAGACAG | -0.153
TGGTGACA | -0.157
ATCGCGAT | 0.211
ACTCCCCT | -0.127
CGCCACAA | 0.0727

Sequence | PBM E-score
CAAAGTGC | -0.186
GATCCTAC | 0.087
CTGTGGCA | -0.179
TAGATCCA | -0.0355
GGGGCCGA | -0.171
ACTATCAC | 0.0506
AAGGTACT | 0.0334
TCGCCACA | 0.099
CGTGATTC | -0.0551
ACGGGGGC | 0.0814
CCTTTGAA | -0.207
CATAGTAA | 0.0989
AGTGGTCG | 0.106
TAGTTCAA | -0.0864
CCTATACG | 0.465
GGAGTCCC | -0.219
AACTCACG | 0.088
TAGTGAGA | 0.0501
GGGAAGGA | -0.0877
CGGCGGTA | 0.184
AAAAAATG | 0.0766
GTTATAGA | -0.0217
CCAACGGC | -0.277
ATCTAACA | 0.0717
ATGGAGCG | 0.156

Sequence | PBM E-score
CCCTATAC | 0.257
CCCGGTGC | -0.248
ATTGGCGG | -0.102
CGGAAGCA | 0.121
ATCGGACA | 0.17
ACCCCAAG | -0.118
CGGATTAG | -0.0627
GCGGCTGA | -0.0382
TCCGCAAA | -0.0567
AACGTCCA | -0.163
AAGATCTA | -0.0485
GACCTTAC | 0.0833
CGTGAATA | 0.0133
CAGGAAGC | -0.0389
GCGTGCAA | 0.0203
AAGCTGGG | -0.271
AGTGCCAC | -0.203
AAAACCGG | -0.0622
AGATGTCC | 0.0385
GAGTAAAA | -0.0405
ACTAAATG | -0.181
GCTGGACA | -0.213
TGGGACCA | -0.27
AGAGCCAA | -0.127
AAAAAACC | -0.126

Sequence | PBM E-score
CTAAGACC | -0.192
CTCCATAA | -0.217
AAGTGCCG | -0.0924
CGCTGAAA | -0.0237
AGCTATAT | 0.0477
GGGCGAGA | -0.171
TCAATTCA | -0.0442
GCCTCCTA | -0.374
CCCTTCCC | -0.234
CCGCGAGG | 0.183
CTCTTCGA | 0.083
AGCGGACG | 0.159
AGTCTCCC | -0.253
GGCAGGAA | -0.144
GTACGGTA | 0.385
ACCAAGAC | -0.0894
ATCCGAAA | 0.195
TAGCCTAA | -0.077
GAGGCGGC | -0.059
ACTGGTGC | -0.021
GTAGGGAC | -0.0987
CATATGAG | -0.123
AGTGCAAG | 0.198
AGCGAGTC | 0.171
ATGGCCTC | -0.109

Sequence | PBM E-score
AACCGAGC | 0.355
GAGAATGC | 0.214
ACAACGCC | -0.0621
TCAATAGA | -0.19
CGGCCGAG | 0.112
CCCCAAGC | 0.0776
CCTAGGGA | -0.25
GAGCGCCC | -0.0895
CACAATTC | -0.0282
TACATAAA | 0.00979
AATACCCG | 0.149
ATCTTCGA | 0.0171
CTGGCAAA | -0.101
GTGCGATA | 0.0925
ATGACTTG | -0.136
ACTATGTA | 0.0343
GAGTGTGC | -0.0597
ATGACTGC | -0.18
TCCTCCAA | -0.118
CTGAACTC | -0.142
GCGTGAAA | 0.0478
ACTCCAAT | -0.106
GCCCACGA | -0.236
CAAGAATG | -0.213
GATAACAC | -0.0205

Sequence | PBM E-score
AGGTATCC | 0.0226
ACATACAC | 0.0438
ATGGTGAC | -0.109
AGGGACTA | -0.28
AATGATGG | 0.0169
CAGAACTC | -0.109
AATTCCCG | 0.0144
CTTCATCA | -0.00655
CGATAGGC | 0.00924
GTGCTGCA | -0.138
GGAGGAAA | -0.0535
GCGTGCGA | 0.203
GCTGACGA | -0.0496
CCCGGAGA | 0.0581
CGTGAAAA | 0.111
ATCAGGGC | -0.0446
AACTTCCT | -0.145
CAGTAGAA | -0.0929
GCGACGCC | 0.12
CGGGTGAC | -0.091
AGAATATG | -0.03
GCCGTCAC | -0.111
CTATTCTA | -0.119
CACAAGGA | -0.144
GTTCGAGA | 0.105

Sequence | PBM E-score
ATAAAGCC | -0.0328
AATTGCGG | -0.0291
ACTGGGGG | -0.145
AACGCCGC | -0.00584
CCCTATAG | -0.169
GTAGTAAC | 0.0981
CGTTTACC | 0.435
GATCCAAC | -0.064
CTGAGCAG | -0.0168
CTTACAAC | -0.053
TTCAAAAA | -0.196
TAAGCTTA | -0.0696
CCATCTGA | -0.0434
CAAGCAAA | -0.119
CACACATC | -0.226
GTCGGACA | 0.176
TGGAGACA | -0.0915
TCAGTTAA | -0.14
ACTGCATG | -0.0787
